Experimental findings from PMC12136788 are described below.

Some of the results follow.

The labels stand for the following.
B1: chrX:23682378:23682503:+|CDS|ENSG00000123131|unk|FALSE|unique (ssRNA)
RNA: GGGAGUUCUACAGUCCGACGAUCUUCAUUAUUGAUGACAAAGGAAUCCUAAGACAAAUUACUCUGAAUGAUCUUCCUGUGGGUAGAUCAGUGGAUGAGACACUACGUUUGGUUCAAGCAUUCCAGUACACUGACAAACACGGACAACAGAGGAUUGAGCAUCA
B2: chr16:89696356:89697333:-|three_prime_utr|ENSG00000158792|control|control|control (ssRNA)
RNA: GGGAGUUCUACAGUCCGACGAUCAGGAGCCUUUCCACAUUUCCCCACCCUCGGAACCCAGACGCAUGCCCACAUGUGCUGGGUAGAGGGGUCCAGCCUGUUCCAGCCAGUGCCUGAACCUGUCCCUGAGAAGGACCCUGUGCCCAACAGAGGAUUGAGCAUCA
B3: chr8:97725557:97725573:+|3pUTR|ENSG00000147649|msi1_unk|total|mutant (ssRNA)
RNA: GGGAGUUCUACAGUCCGACGAUCGUUGACUUUAAAAAUGAAAUCAUUCACAAACUUUUGGUAUAUGAUGGAGAAUGAAAAACCCGAGUCAGACAGCUUUAAUUGACAUUGUCAACACCUCCAGUUAUCAGGAAUACAUUUUUUCAACAGAGGAUUGAGCAUCA
B4: ENSG00000107863:be:win_451|CDS|ENSG00000107863|bound_else_gene|NA|bound_elsewhere_windowed (ssRNA)
RNA: GGGAGUUCUACAGUCCGACGAUCUUGGAACUUAGUGUUAUGCCAAAAGAUGAAGACAUUCUCCAAGUGCUACAGUUUACAAAGGAUGUCACAGCACUGGCAUAUUCUCAAGAUGCCUACCUGAAAGGCAACGAAGCUUAUAGCCAACAGAGGAUUGAGCAUCA
B5: chr12:85264020:85264122:+|3pUTR|ENSG00000133640|unk|total|mutant (ssRNA)
RNA: GGGAGUUCUACAGUCCGACGAUCCACCGUAUUUCAGUUACUUUCCACAGCUGUGUUGCUCAAUAACCGCAUCCAGUGAACUUCCGUAUUUUUUUGUUUUUCCUGUAUUUUAUUAAAAUAUUUCAUCCCGAGAUAACUGAAGUGCAACAGAGGAUUGAGCAUCA
B6: chr8:25429562:25429664:-|3pUTR|ENSG00000104756|unk|FALSE|unique (ssRNA)
RNA: GGGAGUUCUACAGUCCGACGAUCAGAAAAGCACUCAUUUAAUAGAUGUAGGGAAACUAGAUAUUGCUGCCUUUUGAAUGGGGUAGGGGGGUUUACCUGGUUUUAUGACCAGGCAUAGUAUCUAUUAUAUUUGCUUUUAAAUAGCAACAGAGGAUUGAGCAUCA

In the assay the target is MSI1 full-length (mouse, UniProt Q61474 1-362). Briefly: nsRBNS (natural sequence RNA bind-n-seq); RBNS binding buffer (assumed for nsRBNS): 25 mM Tris pH 7.5, 150 mM KCl, 3 mM MgCl2, 0.01% Triton X-100, 500 ug/ml BSA, 20 U/ml SUPERase-In, 4 C; UNK is unkempt and MSI1 is Musashi-1; names of the RNAs are library labels; protein concentration not given here; high values mean tight binding.
Sequence of UniProt Q61474 (Q61474 whole entry): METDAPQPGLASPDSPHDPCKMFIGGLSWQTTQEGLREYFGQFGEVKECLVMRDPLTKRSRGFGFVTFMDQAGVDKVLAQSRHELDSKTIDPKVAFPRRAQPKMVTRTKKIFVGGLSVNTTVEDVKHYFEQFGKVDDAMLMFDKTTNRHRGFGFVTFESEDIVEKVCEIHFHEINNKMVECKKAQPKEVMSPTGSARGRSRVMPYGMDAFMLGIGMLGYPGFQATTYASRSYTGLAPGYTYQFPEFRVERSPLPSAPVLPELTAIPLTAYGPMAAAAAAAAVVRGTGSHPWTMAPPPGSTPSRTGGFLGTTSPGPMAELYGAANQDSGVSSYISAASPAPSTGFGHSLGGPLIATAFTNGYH
With B1, the binding signal amounted to 0.246 enrichment R.
With B2 the figure was 0.465 enrichment R.
With B3 the figure was 0.572 enrichment R; with B4, 0.457 enrichment R.
With B5 the figure was 2.61 enrichment R; with B6, 2.16 enrichment R.
